# Assay results reported in PubChem BioAssay AID686971 (National Center for Advancing Translational Sciences (NCATS), 2013).
# Among all 360,000 compounds or so, about 7,500 (2.1%) were called active. Inconclusive results, whose numbers are uncertain, are shown with a selection of clear calls. Calls come from the whole dose curve; as a rule, active = well fitted cell-killing curve with a large enough effect; inconclusive = small, poorly fitted or top-dose-only effect, or effect the other way, or another doubt; inactive = no such curve, though single readings can be large or run the other way. Potencies of inconclusive entries are left out as doubtful fits.
# Test: qHTS for induction of synthetic lethality in tumor cells producing 2HG: qHTS for the HT-1080-IDH1KD cell line;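 for activity, negative = toxicity: 0% = DMSO wells and -100% = cell-free medium wells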
# Details: HT-1080 IDH1 knockdown viability, ATP luminescence, 48 h; activity, negative = toxicity: at 46.1 µM (top of the series) unless noted
# How it was run: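 Viability of IDH1-knockdown HT-1080 fibrosarcoma cells was assessed by CellTiter-Glo after 48 h at 37 °C with titrated compound; concentration-effect curves were classified by fit quality and response size.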
# Potency is the fitted concentration of half-maximal effect; tags give direction and shape of the fitted curve.
SMILES,"activity, negative = toxicity",Potency
O=C(CCN1CCCO1)N1CCCC(Nc2cccc(F)c2)C1 (centres undefined),inactive: 8.46%,–
COc1ccc(C#Cc2cnc(Cl)c3cncnc23)cc1OC,–,"inconclusive [cytotoxic, single point]"
O=C(Nc1ccccc1-c1ccccc1)c1cnccn1,–,"inconclusive [cytotoxic, single point]"
CCCCCc1c(-c2ccccc2F)ncn1CCc1ccccc1OC,–,"inconclusive [cytotoxic, single point]"
CCc1ccccc1NC(=O)Cn1cccc1C1=NC(c2ccccc2)CO1 (centres undefined),–,active: 16.4 µM
O=C1Nc2cc(C(=O)NCCCN3CCCC3)ccc2S/C1=C\c1ccccc1,–,"inconclusive [cytotoxic, single point]"
Cc1ccc(-c2nc3sc4c(c3c(=O)n2N)CCCC4)cc1,–,"inconclusive [cytotoxic, single point]"
N#Cc1ccccc1NC(=O)C1CC(=O)N(c2ccc3c4c(cccc24)CC3)C1 (centres undefined),inactive: -6.04%,–
O=c1[nH]nc(SC2CCCCC2)c(=O)[nH]1,inactive: -0.593%,–
CCc1c(-c2ccc(Br)cc2)ncn1Cc1cccc(-c2ccccc2)c1,–,"inconclusive [cytotoxic, single point]"
CCc1nc2ccc(C(=O)N3CCN(c4ccccc4)CC3)cn2c1N(CCC(C)C)CCN(C)C,–,"inconclusive [cytotoxic, single point]"
CCC(C)Oc1ccccc1C1CC(=O)NC2=C1C(=O)CCC2 (centres undefined),–,"inconclusive [cytotoxic, single point]"
Cc1ccc(COC(=O)c2nn(C)c(=O)c3ccccc23)cc1,–,"inconclusive [cytotoxic, partial curve]"
O=C(CSc1cccc2cccnc12)Nc1ccccc1F,–,"inconclusive [cytotoxic, single point]"
CC(=O)CSc1nc2ccc(Nc3nc(N4CCOCC4)nc(N4CCOCC4)n3)cc2s1,–,"inconclusive [cytotoxic, partial curve]"
Cc1ccc(C2c3[nH]c4ccccc4c3C[C@H]3C(=O)N(c4ccccc4C(=O)NCCCN4CCOCC4)C(=O)N23)cc1 (some centres undefined),–,active: 29.1 µM
c1ccc(CNc2ncnc3c2cnn3-c2ccccc2)cc1,–,"inconclusive [cytotoxic, partial curve]"
CCCCn1c(SCC(=O)NCc2ccc(OC)c(C(=O)O)c2)nc2cc(S(N)(=O)=O)ccc21,inactive: 11.1%,–
CCOC(=O)N1CCN(Cc2nc3cc(NC(=O)c4cccs4)ccc3n2CC)CC1,–,"inconclusive [cytotoxic, single point]"
CNc1nc(OC)nc(N(C#N)CN2C(=O)c3ccccc3S2(=O)=O)n1,–,"inconclusive [cytotoxic, single point]"
CCc1ccc2[nH]c(=O)c(CN(CCCN3CCOCC3)C(=O)Nc3cccc(Cl)c3)cc2c1,–,"inconclusive [cytotoxic, single point]"
Cc1ccc(S(=O)(=O)Nc2cc3c(C(=O)O)c(C)oc3c3ccccc23)c(C)c1,inactive: -5.87%,–

SMILES,"activity, negative = toxicity",Potency
Cc1ccc(S(=O)(=O)N2CCN(Cc3ccccn3)CC2)cc1,inactive: -1.03%,–
Cc1nnc(NC(=O)CN2CCN(Cc3ccc(F)cc3Cl)CC2)s1,inactive: -2.22%,–
OC(CNC1CCCc2ccccc21)COc1c(Cl)cccc1Cl (centres undefined),–,"inconclusive [cytotoxic, single point]"
O=C(Nc1cccc(-c2nc3ccccc3s2)c1)c1cccs1,–,"inconclusive [cytotoxic, single point]"
CC(C)N(C(=O)[C@H]1C[C@H](CC(=O)NCCCN(C)C)C(=O)N2CCc3c([nH]c4cc(-c5ccco5)ccc34)[C@]12C)C(C)C,–,"inconclusive [cytotoxic, single point]"
OCC1(Cc2ccccc2)CCN(Cc2cnc(-c3ccc(Cl)cc3)nc2)CC1,–,active: 25.9 µM
COc1ccccc1S(=O)(=O)Cc1ccc(C(=O)N2CCN(c3cccc(Cl)c3)CC2)o1,–,active: 20.6 µM
Cc1ccc2c(c1)sc[n+]2Cc1ccccc1,–,"inconclusive [cytotoxic, single point]"
CCCc1cc(=O)[nH]c(Nc2ccc(Cl)cc2)n1,–,"inconclusive [cytotoxic, single point]"
O=C(NCC(=O)N(Cc1ccccc1)C(C(=O)NCC1CCCO1)c1ccccc1)c1ccco1 (centres undefined),inactive: 14.4%,–
Cc1ccc(OCCCOc2cccc3cccnc23)cc1C,–,"inconclusive [cytotoxic, single point]"
COc1ccc(N/N=C/c2c(C(=O)O)ccc3ccccc23)cc1,–,"inconclusive [cytotoxic, partial curve]"
O=C1C(Cc2ccccc2)S/C(=N/N=C/c2ccco2)N1c1ccccc1 (centres undefined),–,"inconclusive [cytotoxic, partial curve]"
Nc1ncnc2nc(SCCC(=O)O)[nH]c12,–,"inconclusive [rising, partial curve]"
COc1ccc(-c2cnc3c(NC(C)=O)cc(-c4cc(F)ccc4OC)cn23)cc1OC,–,"inconclusive [cytotoxic, full curve]"
Cc1cccc(N2CCN(C(=O)c3ccncc3)CC2)c1C,–,active: 13 µM
COc1ccc(C(C)(O)c2nc(-c3cccc(C#N)c3)cs2)cc1 (centres undefined),–,"inconclusive [cytotoxic, single point]"
C/C=C(/C)C(=O)Nc1cccc(C2=NOC3(C2)C[C@H](C(N)=O)N(C(=O)c2ccc(Cl)cc2)C3)c1 (some centres undefined),–,"inconclusive [rising, single point]"
CC1(C(=O)Nc2ccc(F)c(Cl)c2)Cc2c(-c3cccc(C(N)=O)c3)ccnc2O1 (centres undefined),–,"inconclusive [cytotoxic, partial curve]"
Cc1c(Cl)cccc1NC(=S)NNc1ncc(C(F)(F)F)cc1Cl,–,"inconclusive [cytotoxic, single point]"
O=C(/C(=C/O)N=Nc1ccc(Cl)cc1)c1ccncc1,–,active: 20.6 µM
O=c1cc(C(F)(F)F)[nH]c2c(C(F)(F)F)cccc12,–,"inconclusive [cytotoxic, single point]"
